Among all 360,000 compounds or so, about 16,000 (4.4%) were called active. The shares of active, inactive and inconclusive entries below differ from those in the screen. Calls come from the whole dose curve; as a rule, active = well fitted inhibition curve with a large enough effect; inconclusive = small, poorly fitted or top-dose-only effect; inactive = no such curve, though single readings can be large or run the other way. Potencies beside an inconclusive call are fits to weak or partial responses and may not hold up.
biological target: Bromodomain adjacent to zinc finger domain protein 2B (Homo sapiens) (UniProt Q9UIF8); assay: qHTS Assay for Inhibitors of BAZ2B; conditions: AlphaScreen BAZ2B-H3K14Ac peptide displacement; activity change, negative = inhibition: at 114 µM (top of the series) unless noted; note: nearly all actives have a fitted effect of over 60% in size
Method in brief: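 Inhibition is scored as reduced AlphaScreen emission. The BAZ2B/b-H3(5-23)K14Ac complex (50 nM each) in PBS pH 7.4, 0.01% Tween-20 meets compound (up to 110 uM) for 30 min at RT before bead addition.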
% is set by controls: 0 for no effect and ±100 for the full control effect; potency is the fitted concentration of half-maximal effect; tags give direction and shape of the fitted curve.

UniProt Q9UIF8, sequence (Q9UIF8 whole entry, looked up, the tested form may be a part): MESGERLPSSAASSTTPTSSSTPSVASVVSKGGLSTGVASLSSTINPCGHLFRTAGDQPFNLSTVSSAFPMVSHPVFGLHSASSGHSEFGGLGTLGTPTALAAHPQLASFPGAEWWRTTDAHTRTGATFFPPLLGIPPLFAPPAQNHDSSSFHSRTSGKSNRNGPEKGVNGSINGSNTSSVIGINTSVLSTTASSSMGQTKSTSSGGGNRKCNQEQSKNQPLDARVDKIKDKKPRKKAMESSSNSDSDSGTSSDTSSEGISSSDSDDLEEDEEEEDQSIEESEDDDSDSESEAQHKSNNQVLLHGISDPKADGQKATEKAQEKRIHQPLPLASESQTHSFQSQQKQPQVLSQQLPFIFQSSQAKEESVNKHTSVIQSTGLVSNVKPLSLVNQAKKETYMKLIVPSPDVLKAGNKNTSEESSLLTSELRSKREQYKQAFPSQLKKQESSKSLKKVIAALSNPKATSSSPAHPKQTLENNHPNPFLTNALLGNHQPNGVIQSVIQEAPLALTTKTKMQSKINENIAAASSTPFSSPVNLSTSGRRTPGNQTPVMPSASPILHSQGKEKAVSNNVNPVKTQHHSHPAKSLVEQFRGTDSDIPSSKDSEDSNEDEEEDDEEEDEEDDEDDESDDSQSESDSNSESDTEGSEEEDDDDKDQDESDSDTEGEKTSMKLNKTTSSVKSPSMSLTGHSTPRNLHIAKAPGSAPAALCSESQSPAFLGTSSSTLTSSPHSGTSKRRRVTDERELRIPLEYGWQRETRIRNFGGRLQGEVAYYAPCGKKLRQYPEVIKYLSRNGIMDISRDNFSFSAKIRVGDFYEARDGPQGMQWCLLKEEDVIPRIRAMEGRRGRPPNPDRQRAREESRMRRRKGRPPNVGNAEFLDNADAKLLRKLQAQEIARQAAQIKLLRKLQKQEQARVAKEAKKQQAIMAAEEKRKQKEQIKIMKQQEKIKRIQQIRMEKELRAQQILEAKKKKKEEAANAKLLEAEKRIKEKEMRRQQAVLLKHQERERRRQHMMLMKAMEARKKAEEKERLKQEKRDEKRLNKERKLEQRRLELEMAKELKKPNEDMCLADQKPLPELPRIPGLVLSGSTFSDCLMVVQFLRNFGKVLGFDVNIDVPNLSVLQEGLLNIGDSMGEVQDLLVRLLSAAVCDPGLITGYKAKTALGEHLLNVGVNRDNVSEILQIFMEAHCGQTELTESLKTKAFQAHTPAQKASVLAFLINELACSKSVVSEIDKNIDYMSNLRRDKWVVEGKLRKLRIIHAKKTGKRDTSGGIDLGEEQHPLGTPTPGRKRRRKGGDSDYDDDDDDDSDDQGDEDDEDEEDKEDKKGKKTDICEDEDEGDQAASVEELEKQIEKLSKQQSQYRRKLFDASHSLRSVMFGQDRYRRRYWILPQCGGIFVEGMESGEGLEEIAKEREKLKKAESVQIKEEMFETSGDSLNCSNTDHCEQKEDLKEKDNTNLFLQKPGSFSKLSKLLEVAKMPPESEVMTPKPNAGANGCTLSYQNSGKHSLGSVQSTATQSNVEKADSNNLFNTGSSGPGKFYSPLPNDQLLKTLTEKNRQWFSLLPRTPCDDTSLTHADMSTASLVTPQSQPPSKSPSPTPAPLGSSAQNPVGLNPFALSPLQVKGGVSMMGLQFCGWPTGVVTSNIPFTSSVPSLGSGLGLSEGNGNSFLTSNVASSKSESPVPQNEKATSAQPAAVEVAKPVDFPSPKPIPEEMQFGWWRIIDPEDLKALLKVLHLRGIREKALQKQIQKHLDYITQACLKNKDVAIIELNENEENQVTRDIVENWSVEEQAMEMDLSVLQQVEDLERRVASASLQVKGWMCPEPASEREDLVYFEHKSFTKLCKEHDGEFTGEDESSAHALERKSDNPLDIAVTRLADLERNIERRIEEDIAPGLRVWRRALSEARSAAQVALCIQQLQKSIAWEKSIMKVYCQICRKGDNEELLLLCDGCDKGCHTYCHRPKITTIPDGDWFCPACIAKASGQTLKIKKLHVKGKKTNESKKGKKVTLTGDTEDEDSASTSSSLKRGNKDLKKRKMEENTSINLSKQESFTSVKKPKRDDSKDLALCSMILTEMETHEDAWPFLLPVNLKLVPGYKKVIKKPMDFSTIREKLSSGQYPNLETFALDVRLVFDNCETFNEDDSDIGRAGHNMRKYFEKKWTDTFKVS

With `c1ccc(-c2onc(-c3ccco3)c2-c2ccc3c(c2)OCO3)cc1` as the compound, how does the Potency read?
Its Potency is inconclusive: 25.1 µM [inhibitor, single point].

For `COc1ccc(-c2nnc(SCC3CCCO3)n2C)cc1` (stereo not drawn), which Potency is on record?
Its Potency is inconclusive: 1 µM [inhibitor, full curve, poor fit].

For `N#CC(C#N)=C1C=C2C=C(N3CCCCCC3)CCC2CC1` (stereo not drawn), which Potency is on record?
Its Potency is inconclusive: 50.1 µM [inhibitor, partial curve].

For `CC(C)c1cc[n+](-c2nc([O-])sc2C=O)cc1`, which Potency is on record?
The Potency was active: 79.4 µM.

How did the “activity change, negative = inhibition” value turn out when `O=C(CCN1C(=O)c2ccc([N+](=O)[O-])cc2C1=O)Nc1ccc(O)cc1C(=O)O` was run?
Its value is inactive: 6.9%.

For `Cc1cccc(Nc2nc3c(s2)CCCC3)c1`, which Potency is on record?
Its Potency is inconclusive: 56.2 µM [inhibitor, partial curve].

For `CC1CC(C)CN(C(=O)c2ccc(C#N)cc2)C1` (stereo not drawn), which Potency is on record?
The Potency was inconclusive: 89.1 µM [inhibitor, single point].

For `CCC(C)c1ccc(NC(=S)N2CCN(c3ccccn3)CC2)cc1` (stereo not drawn), which Potency is on record?
Its Potency is inconclusive: 31.6 µM [inhibitor, partial curve].

With `COc1ccc(OC)c(CNS(=O)(=O)c2ccc3c(c2)oc(=O)n3C)c1` as the compound, how does the “activity change, negative = inhibition” value read?
Its value is inactive: -1.92%.

How did the Potency turn out when `Clc1ccc(-c2nnc(N3CCCC3)nn2)cc1` was run?
The Potency was inconclusive: 7.08 µM [inhibitor, full curve].

`CN1CCN(C(=O)N2CCNC2=O)CC1` was tested. Which Potency did it give?
The Potency was inconclusive: 89.1 µM [inhibitor, single point].

Which “activity change, negative = inhibition” value does the source give for `COC(=O)c1sccc1NC(=O)c1c(Cl)cccc1Cl` here?
Its value is inactive: 21.2%.

With `O=C(CN1C=NS(=O)(=O)c2ccccc21)Nc1ccccc1F` as the compound, how does the “activity change, negative = inhibition” value read?
Its value is inactive: 0.613%.

For `Cc1nc2ccc(NS(=O)(=O)c3c(C)c(C)cc(C)c3C)cc2s1`, which Potency is on record?
Its Potency is inconclusive: 89.1 µM [inhibitor, single point].

For `COc1cc2cc(CN(CCc3cccc(C)c3)C(=S)NCCCN3CCOCC3)c(=O)[nH]c2cc1OC`, which Potency is on record?
Its Potency is inconclusive: 20 µM [inhibitor, full curve, poor fit].

Which Potency does the source give for `CC(C)(C)c1ccc(OCCCNC2CCCC2)cc1` here?
The Potency was active: 79.4 µM.

Which “activity change, negative = inhibition” value does the source give for `O=C(Nc1ccc([N+](=O)[O-])cc1)c1cccc(S(=O)(=O)Nc2ccccn2)c1` here?
Its value is inactive: -14.8%.

`O=C(CCN1C(=O)c2ccccc2C1=O)C1=NN[C@@H]2C(=O)N(c3ccc4c(c3)OCCO4)C(=O)[C@H]12` was tested. Which “activity change, negative = inhibition” value did it give?
The value was inactive: -16.9%.

Which Potency does the source give for `CCC(C)Sc1ccc([C@@H]2[C@H]3C(=O)N(CC)C(=O)[C@H]3[C@]3(C(=O)OC)CCCN23)cc1OC` (stereo partly drawn) here?
Its Potency is inconclusive: 89.1 µM [inhibitor, single point].

`CC(OC(=O)c1ccc(O)cc1)C(=O)Nc1nc(-c2ccccc2)cs1` (stereo not drawn) was tested. Which Potency did it give?
Its Potency is inconclusive: 89.1 µM [inhibitor, single point].

With `Cc1c(C(=O)NNS(=O)(=O)c2ccccc2)sc(=S)n1C` as the compound, how does the Potency read?
The Potency was inconclusive: 100 µM [inhibitor, single point].

With `CC1CCCN(C(=O)c2cc(N3C(=O)C4C5CCC(C5)C4C3=O)ccc2Cl)C1` (stereo not drawn) as the compound, how does the Potency read?
The Potency was inconclusive: 3.98 µM [inhibitor, single point].

Which Potency does the source give for `CCOc1ccc2nc(NS(=O)(=O)c3ccc(NC(C)=O)cc3)sc2c1` here?
The Potency was inconclusive: 89.1 µM [inhibitor, single point].

How did the Potency turn out when `Cc1ccc(NC(=O)CN2CCC(Cc3ccccc3)CC2)cc1S(=O)(=O)N(C)C` was run?
The Potency was active: 39.8 µM.

With `O=C(CSc1nnc(C2COc3ccccc3O2)o1)Nc1nccs1` (stereo not drawn) as the compound, how does the Potency read?
Its Potency is active: 39.8 µM.

With `C[C@@H]1O[C@@H](O[C@H]2[C@H](Oc3cc(O)c4c(c3)OC(c3ccc(O)cc3)CC4=O)O[C@H](CO)[C@@H](O)[C@@H]2O)[C@H](O)[C@H](O)[C@H]1O` (stereo partly drawn) as the compound, how does the “activity change, negative = inhibition” value read?
The value was inactive: 10.9%.

Which “activity change, negative = inhibition” value does the source give for `CN(c1ccccc1C(=O)N1CCOCC1)S(C)(=O)=O` here?
Its value is inactive: 9.97%.

`Cc1nn(-c2ccccc2)c2c1C1(C(=O)N(C(C)C)c3ccccc31)C(C#N)=C(N)O2` (stereo not drawn) was tested. Which Potency did it give?
The Potency was inconclusive: 89.1 µM [inhibitor, single point].

With `Cc1ccc(S(=O)(=O)NCC(=O)OCC(=O)N2N=C(c3ccc(Cl)cc3)CC2c2ccco2)cc1C` (stereo not drawn) as the compound, how does the “activity change, negative = inhibition” value read?
Its value is inactive: -37.7%.

Which Potency does the source give for `O=C(N/N=C/c1ccc([N+](=O)[O-])o1)C1CC1` here?
Its Potency is active: 50.1 µM.

For `CCOC(=O)c1sc2nc(CSc3ccccc3)nc(NCCN(C)C)c2c1C`, which Potency is on record?
The Potency was inconclusive: 70.8 µM [inhibitor, partial curve].

How did the “activity change, negative = inhibition” value turn out when `CCOc1ccc(CCNC(=O)c2ccc(-n3c(C)cc4c3CCCC4)cc2)cc1OCC` was run?
Its value is inactive: -15.5%.

For `c1ccc(-c2nc3ccccn3c2NC2CCCC2)nc1`, which Potency is on record?
The Potency was active: 50.1 µM.

Which Potency does the source give for `CC(=O)N1[C@H](Cc2ccccc2)C=C[C@]1(C)C(=O)NCc1ccccn1` here?
Its Potency is inconclusive: 89.1 µM [inhibitor, single point].

How did the Potency turn out when `O=C(O)CCc1cc(I)c(Oc2ccc(O)c(I)c2)c(I)c1` was run?
Its Potency is inconclusive: 79.4 µM [inhibitor, single point].

For `CCOC(=O)CNC(=O)c1cc2c(=O)oc3ccccc3c2s1`, which “activity change, negative = inhibition” value is on record?
The value was inactive: 10.5%.

How did the Potency turn out when `O=C(CC1Sc2ncnn2C1=O)Nc1ccccc1` (stereo not drawn) was run?
Its Potency is inconclusive: 12.6 µM [inhibitor, full curve, poor fit].

Which Potency does the source give for `Cc1ncsc1CCOC(=O)c1cccnc1` here?
Its Potency is active: 50.1 µM.

For `Cc1ccc(NN2C(=O)C=C(c3ccccc3)C2=O)cc1`, which “activity change, negative = inhibition” value is on record?
Its value is inactive: -31.2%.

`CCn1c(CN2CCN(c3cccc(C)c3C)CC2)n[nH]c1=S` was tested. Which “activity change, negative = inhibition” value did it give?
Its value is inactive: -7.84%.

For `Fc1cccc(CN2CCCCCCC2)c1`, which Potency is on record?
The Potency was inconclusive: 89.1 µM [inhibitor, single point].

With `CCOc1ccc(NC(=O)Nc2nnc(N3CCCCC3C)s2)cc1` (stereo not drawn) as the compound, how does the Potency read?
Its Potency is inconclusive: 79.4 µM [inhibitor, partial curve].

How did the “activity change, negative = inhibition” value turn out when `COC(=O)C(C)N1CCC(=O)c2ccccc2S1(=O)=O` (stereo not drawn) was run?
The value was inactive: 3.35%.

How did the Potency turn out when `Cc1csc(NC(=O)c2cc([N+](=O)[O-])cc([N+](=O)[O-])c2)n1` was run?
Its Potency is inconclusive: 44.7 µM [inhibitor, partial curve].

With `CCN(CC)c1ccc(C(=O)N2CCc3c([nH]c4ccccc34)C2c2ccc(F)cc2)cc1` (stereo not drawn) as the compound, how does the “activity change, negative = inhibition” value read?
Its value is inactive: -34%.

How did the Potency turn out when `O=C(COc1ccc([N+](=O)[O-])cc1)Nc1nc(-c2ccccn2)cs1` was run?
Its Potency is active: 56.2 µM.

`O=C(Nc1ccc2c(c1)OCO2)[C@@H]1[C@@H]2C(=O)N(C3CCCCC3)C(=O)[C@@H]2C2c3ccccc3C=CN21` (stereo partly drawn) was tested. Which “activity change, negative = inhibition” value did it give?
The value was inactive: 2.5%.

`CCN1CCCC1CNC(=O)c1ccc(Sc2ccc(F)cc2)c([N+](=O)[O-])c1` (stereo not drawn) was tested. Which Potency did it give?
The Potency was inconclusive: 35.5 µM [inhibitor, full curve].

For `Cc1cc2cc(CNC(=O)c3cccc([N+](=O)[O-])c3)ccc2n1C`, which Potency is on record?
The Potency was inconclusive: 39.8 µM [inhibitor, full curve].

With `CC(C)[C@H](NC(=O)OC(C)(C)C)C(=O)NCC1CCC(C(=O)N[C@@H](Cc2ccccc2)C(=O)O)CC1` (stereo partly drawn) as the compound, how does the “activity change, negative = inhibition” value read?
The value was inactive: -13.5%.

With `CCOC(=O)Cn1c(=O)oc2cc(S(=O)(=O)N3CCN(c4cccc(Cl)c4)CC3)ccc21` as the compound, how does the Potency read?
Its Potency is inconclusive: 79.4 µM [inhibitor, single point].

`Cc1ccccc1-c1n[nH]c(=S)o1` was tested. Which “activity change, negative = inhibition” value did it give?
Its value is inactive: -34.6%.

Which “activity change, negative = inhibition” value does the source give for `Cc1cc(C)c(Cn2c(=O)n(CCC(=O)NCCc3ccccc3)c(=O)c3ccccc32)c(C)c1` here?
The value was inactive: 2.9%.

For `Cn1/c(=N/N=C/c2ccccn2)sc2ccccc21`, which Potency is on record?
Its Potency is inconclusive: 79.4 µM [inhibitor, single point].

`CCN(CC)C(=O)c1[nH]cnc1C(=O)N[C@@H](CC(C)C)C(=O)OC(C)(C)C` was tested. Which Potency did it give?
Its Potency is inconclusive: 89.1 µM [inhibitor, single point].

Which “activity change, negative = inhibition” value does the source give for `COc1ccc(-n2c(=O)c3c4c(sc3n(Cc3ccc(F)cc3)c2=O)CN(C(C)=O)CC4)c(OC)c1` here?
Its value is inactive: -26.7%.

With `NS(=O)(=O)c1cccc(NC(=O)COC(=O)CCCc2c[nH]c3ccccc23)c1` as the compound, how does the Potency read?
The Potency was inconclusive: 50.1 µM [inhibitor, partial curve].

For `Cc1ccc(/C=N/n2c(COc3ccccc3)n[nH]c2=S)o1`, which “activity change, negative = inhibition” value is on record?
The value was inactive: -32.7%.

Which “activity change, negative = inhibition” value does the source give for `N#C/C(=C\c1cc2c(cc1Br)OCO2)c1ccc(C(=O)O)cc1` here?
The value was inactive: -36.1%.

How did the Potency turn out when `Cc1nnsc1C(=O)NNS(=O)(=O)c1ccccc1` was run?
Its Potency is inconclusive: 79.4 µM [inhibitor, single point].

How did the Potency turn out when `O=C(O)c1ccc(Cn2cc(/C=C\[N+](=O)[O-])c3ccccc32)o1` was run?
Its Potency is inconclusive: 50.1 µM [inhibitor, partial curve].

How did the Potency turn out when `CCC(C)C(=O)N1c2ccccc2C(=C2SC(C(=O)OC)=C(C(=O)OC)S2)C(=S)C1(C)C` (stereo not drawn) was run?
Its Potency is active: 8.91 µM.

How did the Potency turn out when `Cc1ccc(S(=O)(=O)NCCc2nnc3ccc(SCc4ccccc4F)nn23)cc1` was run?
Its Potency is inconclusive: 70.8 µM [inhibitor, single point].

Which “activity change, negative = inhibition” value does the source give for `CCCCn1c(N)c(N(CCOC)C(=O)CSCc2ccc(Cl)c(Cl)c2)c(=O)[nH]c1=O` here?
Its value is inactive: 1.22%.

`O=C(Nc1nc(=O)n(C(=O)c2cccc(C(F)(F)F)c2)s1)c1ccccc1` was tested. Which Potency did it give?
Its Potency is inconclusive: 100 µM [inhibitor, single point].

With `Cc1ccc(NC(=O)c2ccc(Br)o2)cc1S(=O)(=O)N(C)C` as the compound, how does the “activity change, negative = inhibition” value read?
The value was inactive: -10.4%.

Which “activity change, negative = inhibition” value does the source give for `CCC(=O)N1CCc2cc(S(=O)(=O)NCCN3CCC(C)CC3)ccc21` here?
Its value is inactive: 3.68%.

For `Cn1c(SCc2ccc(Br)cc2)nc2c(c1=O)SCC2`, which Potency is on record?
Its Potency is inconclusive: 50.1 µM [inhibitor, partial curve].

Which Potency does the source give for `Cc1cc(SCC(=O)NC(=O)c2cccn2C)nc2ccccc12` here?
Its Potency is inconclusive: 44.7 µM [inhibitor, partial curve].

`Nc1ccc(N2CCN(c3ccc(Cl)c(Cl)c3)CC2)cc1` was tested. Which Potency did it give?
Its Potency is active: 14.1 µM.

How did the Potency turn out when `Cc1csc(NC(=O)CSc2nnc(Cc3cccn3C)n2CCc2ccccc2)n1` was run?
Its Potency is inconclusive: 44.7 µM [inhibitor, partial curve].

With `CC1(C)CC(=O)C2=C(C1)N(Cc1ccccc1)C(=O)C2(NC(=O)C(C)(C)C)C(F)(F)F` (stereo not drawn) as the compound, how does the “activity change, negative = inhibition” value read?
The value was inactive: -6.22%.

With `Cc1[nH][nH]c(=O)c1C(c1cc2c(cc1Br)OCO2)c1c(C)[nH][nH]c1=O` as the compound, how does the “activity change, negative = inhibition” value read?
Its value is inactive: -3.92%.
